The record followed here is PubChem BioAssay AID1240 (Sanford-Burnham Center for Chemical Genomics, 2008).

The whole screen tested about 50,000 compounds, of which about 800 (1.6%) showed an effect of 50% or more. The list shows a part of the results.

For this assay, the target named is Bcl-2-like protein 10 (Homo sapiens) (UniProt Q9HD36). In words: Phenotype converters, Bcl-B/TR3 peptide binding displacement, primary biochemical FP (AID 1240).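 Also: 0% = Bcl-B with tracer peptide and DMSO and 100% = tracer peptide lacking Bcl-B.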 Conditions: GST-Bcl-B / FITC-TR3 peptide fluorescence polarization; stronger effect = higher value; compound at 3.75 mg/L. (In general: Polarisation of emitted light reports the rotation of a fluorescent probe.)
Sequence of UniProt Q9HD36 (Q9HD36 whole entry, looked up): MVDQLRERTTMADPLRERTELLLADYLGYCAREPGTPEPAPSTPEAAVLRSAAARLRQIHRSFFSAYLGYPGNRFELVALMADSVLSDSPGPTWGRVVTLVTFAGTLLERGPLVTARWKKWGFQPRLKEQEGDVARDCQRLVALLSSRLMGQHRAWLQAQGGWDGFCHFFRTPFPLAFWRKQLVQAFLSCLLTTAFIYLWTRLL
Regarding `Cc1cccc(OCC(=O)Nc2ccc3c(c2)-c2ccccc2C3)c1`, the displacement was determined as 2.7%.
For the compound `Cc1ccc(S(=O)(=O)N(CC(O)CN(CC(C)C)CC(C)C)c2cccc(C)c2)cc1` (centres undefined), the displacement turned out to be 10%.
Turning to `CC(=O)Nc1ccc(NC(=O)c2ccc(C)cc2)cc1`, the displacement is -1.1%.
With `CCCC(=O)N/C(N)=N\c1nc(C)c2ccccc2n1`, the displacement was 0.1%.
With `C=CCc1ccccc1OCCOc1ccc(Br)cc1/C=C1/SC(=S)N(C)C1=O` the figure was -1.8%.
With `COC(=O)c1c(NC(=O)c2cccc(F)c2)sc(C)c1C`, the displacement worked out at 9.1%.
Take `Cc1c(NC(=O)CSc2nc3ccccc3n2C)c(=O)n(-c2ccccc2)n1C`: the displacement was found to be 16%.
Then `O=C(Nc1ccc(S(=O)(=O)Nc2ncccn2)cc1)C1COc2ccccc2O1` (centres undefined), with 7.4%; and `O=C(N/N=C/c1ccc(Br)cc1)C1CC(=O)N(c2ccc(Cl)cc2)C1` (centres undefined), with -8.7%; and `CN(C)Cn1c(O)c(N=NC(=O)c2ccncc2)c2cc(Br)ccc21`, with -8.9%.
As to `Cc1ccc(-c2cc(C(=O)N3CCOCC3)c3ccccc3n2)c(C)c1`, the displacement is -4.9%.
For `COc1ccccc1C(NC(=O)Cc1ccccc1)c1c(OC(C)=O)ccc2ccccc12` (centres undefined), the displacement is -13%.
Then `CCOc1ccc(C(=O)Nc2ncc([N+](=O)[O-])s2)cc1OCC`, with 14.9%; and `O=C(CN1C(=O)c2ccc([N+](=O)[O-])cc2C1=O)Nc1ccc(O)cc1C(=O)O`, with 17.5%; and `Cc1cccc(NC(=O)c2ccccc2NC(=O)c2cccs2)c1C`, with 9.5%.
With `COC(=O)C1=C(C)NC2=C(C(=O)c3ccccc32)C1c1ccccc1OCc1ccccc1F` (centres undefined) the figure was 11.7%; with `COc1ccccc1NC(=O)C(=O)NCCc1ccccc1`, 14.7%.
Then `C=CCN1C(=O)/C(=C\c2ccc(-c3ccccc3)o2)SC1=S`, with 5.6%.
For the compound `Cc1ccc(C(=O)Nc2ccc3oc(-c4cccc(Br)c4)nc3c2)cc1[N+](=O)[O-]`, the displacement was 13.7%.
Then `O=C(N/N=C\c1cc([N+](=O)[O-])ccc1N1CCCC1)c1ccccn1`, with -12.4%; and `O=C(COc1ccc(-c2ccccc2)cc1)N/N=C/c1ccncc1`, with 5.2%; and `CN1C(=O)NC(=O)/C(=C/c2cccc3ccccc23)C1=O`, with -2.2%.
On to `O=C(Nc1cccnc1)c1ccc(-c2cccc(Cl)c2)o1`, for which the displacement is -7.1%.
Then `COc1ccc(/C=C2\CCC/C(=C\c3ccc(OC)c(OC)c3)C2=O)cc1OC`, with 16.1%.
Consider `Cc1onc(-c2c(Cl)cccc2Cl)c1C(=O)NCC1CCCO1` (centres undefined), for which the displacement was determined as 7.2%.
On to `O=C(O)C1CC=C(Cl)CC1C(=O)Nc1cncs1` (centres undefined), for which the displacement came out at 2.3%.
Take `Ic1ccc(N=Cc2ccc(OC3CSC3)cc2)cc1`: the displacement is -4.3%.
Take `Cn1c2ccccc2c2nnc(SCCN3CCOCC3)nc21`: the displacement is -0.6%.
In the case of `Cc1c(C(=O)Nc2cc(Cl)cc(Cl)c2)oc2ccccc12`, the displacement was found to be 13.1%.
As to `CC(=O)c1ccc(NC(=S)Nc2ccc(F)cc2)cc1`, the displacement was 5%.
In the case of `COc1ccc(/C=C2\C(=O)NC(=S)N(c3cccc(Br)c3)C2=O)c(OC)c1`, the displacement was -0.7%.
Then `COc1ccc(NC(=O)C2C3C=CC(O3)C2C(=O)O)c(OC)c1` (centres undefined), with -3.3%; and `C=CCC1(C#N)C(=S)NC2=C(C(=O)CC(C)(C)C2)C1c1ccccc1` (centres undefined), with -9.8%; and `Cc1ccc(C(=O)NCCCn2ccnc2)cc1C`, with -3.5%.
As to `CCc1c(C)c2ccc(OCc3ccccc3)c(C)c2oc1=O`, the displacement is -3.1%.
`Cc1cccc2c(=O)oc(-c3ccc(F)cc3)nc12`: the displacement turned out to be 24.6%.
For the compound `O=C(Nc1ccccc1[N+](=O)[O-])C1C(c2ccccc2)C1(Cl)Cl` (centres undefined), the displacement was 5.9%.
Then `Cc1sc(NC(=O)c2cccc([N+](=O)[O-])c2)c(C(N)=O)c1C`, with 8.7%; and `COc1cccc(-c2nc(-c3cccc([N+](=O)[O-])c3)no2)c1`, with -6.4%; and `C/C(=N\Nc1nc(-c2ccccc2)cs1)c1ccc([N+](=O)[O-])cc1`, with 12.6%.
With `CC(C)c1ccc(CNC(=O)CSc2nnc(-c3cccc(F)c3)n2-c2ccccc2)cc1`, the displacement is -18.5%.
With `Cc1cccc(C(C2=C(O)CC(C)(C)CC2=O)C2C(=O)CC(C)(C)CC2=O)c1` (centres undefined) the figure was -8.5%.
As to `O=C1NC(=O)/C(=C\c2ccc(O)c(Br)c2)S1`, the displacement is -18.2%.
With `CC1(C)CC(NC(=S)Nc2ccccc2)CC(C)(C)N1` the figure was 9.6%; with `Oc1ccccc1/C=N\Nc1nc(-c2ccc(Cl)cc2)cs1`, -10.8%; with `O=C(COc1ccccc1)Nc1cccc2ccccc12`, 5.4%.
Then `O=C1CC(C2CCCO2)C(=O)N1c1cccc(Cl)c1` (centres undefined), with -19%; and `COc1ccccc1C(=O)Nc1nc2ccc([N+](=O)[O-])cc2s1`, with -3.7%; and `CC(C)(C)c1cnnn1-c1ccc(C=O)cc1`, with -3.2%.
Then `Cc1ccc(S(=O)(=O)Oc2cccc(/C=C3\SC(=S)NC3=O)c2)cc1`, with -87.6%.
For `CCOC(=O)c1c(NC(=O)c2cccc(Cl)c2)sc(C(=O)Nc2ccc(OC)cc2OC)c1C`, the displacement was determined as 12.3%.
Turning to `COc1ccc(OC)c(/C=C2\SC(N3CCC(C)CC3)=NC2=O)c1`, the displacement was -8.7%.
With `COc1cccc(OCc2cc(C3Nc4ccccc4C(=O)N3Cc3ccco3)ccc2OC)c1` (centres undefined) the figure was -23.2%; with `O=C(NCC1CCCO1)c1ccc(Cl)c(Cl)c1` (centres undefined), -1.4%.
With `O=C(c1cc(-c2ccccc2Cl)nc2ccccc12)N1CCN(c2ccc(F)cc2)CC1` the figure was 0.5%; with `COc1cc(C(c2c(C)[nH][nH]c2=O)c2c(C)[nH][nH]c2=O)ccc1OCc1ccccc1Cl`, -2.3%; with `O=C(O)c1ccc(-c2ccc(/C=C3\SC(=S)N(c4ccc([N+](=O)[O-])cc4)C3=O)o2)cc1`, -58.9%.
For `Cc1nc(C2CC(=O)OC23CCCCC3)cs1` (centres undefined), the displacement was -4.4%.
Then `COc1ccc(/C=N\NC(=O)c2ccc([N+](=O)[O-])cc2)cc1Cl`, with 5.3%; and `CCc1nnc(NC(=O)c2ccc([N+](=O)[O-])cc2)s1`, with 3.6%; and `Cc1occc1C(=O)Nc1ccc2ccccc2c1`, with 12%.
`O=C(Nc1ccc(F)c([N+](=O)[O-])c1)c1ccc(-c2cccc(Cl)c2)o1`: the displacement worked out at 2.8%.
With `CCOC(=O)c1c(NC(=O)c2c(-c3c(Cl)cccc3Cl)noc2C)sc2c1CCCC2` the figure was -18.9%; with `O=C1/C(=C\c2cccc3ccccc23)SC(=S)N1CCc1ccccc1`, -2.4%.
Then `O=C(CSc1nnc(-c2ccco2)o1)c1ccccc1`, with -21.9%; and `CS(=O)(=O)N(CC(=O)N1CCOCC1)c1ccc(Oc2ccccc2)cc1`, with 3.2%; and `O=C(NCCc1ccccc1)C(=O)Nc1ccc([N+](=O)[O-])cc1`, with 7.8%.
Then `O=C(Nc1ccc(Cl)cc1Cl)C1CC(=O)N(c2ccc(F)cc2)C1` (centres undefined), with -1.9%; and `COc1ccccc1OCCCOc1ccccc1OC`, with 17.4%.
